Measured values published in publication PMC4336329 (PLoS ONE, 2015).
Out of some 310,000 compounds screened, about 14,000 (4.5%) showed an effect of 50% or more. Effects have a minus sign here. The list shows a part of the results.

Target: human ether-à-go-go-related gene (hERG) potassium channel (human, UniProt Q12809)
Test: primary screen, population patch clamp on CHO cells stably expressing hERG
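Further: peak tail current of the secondary pulse compared with the same well before compound.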

human ether-à-go-go-related gene (hERG) potassium channel, sequence (Q12809 whole entry, looked up): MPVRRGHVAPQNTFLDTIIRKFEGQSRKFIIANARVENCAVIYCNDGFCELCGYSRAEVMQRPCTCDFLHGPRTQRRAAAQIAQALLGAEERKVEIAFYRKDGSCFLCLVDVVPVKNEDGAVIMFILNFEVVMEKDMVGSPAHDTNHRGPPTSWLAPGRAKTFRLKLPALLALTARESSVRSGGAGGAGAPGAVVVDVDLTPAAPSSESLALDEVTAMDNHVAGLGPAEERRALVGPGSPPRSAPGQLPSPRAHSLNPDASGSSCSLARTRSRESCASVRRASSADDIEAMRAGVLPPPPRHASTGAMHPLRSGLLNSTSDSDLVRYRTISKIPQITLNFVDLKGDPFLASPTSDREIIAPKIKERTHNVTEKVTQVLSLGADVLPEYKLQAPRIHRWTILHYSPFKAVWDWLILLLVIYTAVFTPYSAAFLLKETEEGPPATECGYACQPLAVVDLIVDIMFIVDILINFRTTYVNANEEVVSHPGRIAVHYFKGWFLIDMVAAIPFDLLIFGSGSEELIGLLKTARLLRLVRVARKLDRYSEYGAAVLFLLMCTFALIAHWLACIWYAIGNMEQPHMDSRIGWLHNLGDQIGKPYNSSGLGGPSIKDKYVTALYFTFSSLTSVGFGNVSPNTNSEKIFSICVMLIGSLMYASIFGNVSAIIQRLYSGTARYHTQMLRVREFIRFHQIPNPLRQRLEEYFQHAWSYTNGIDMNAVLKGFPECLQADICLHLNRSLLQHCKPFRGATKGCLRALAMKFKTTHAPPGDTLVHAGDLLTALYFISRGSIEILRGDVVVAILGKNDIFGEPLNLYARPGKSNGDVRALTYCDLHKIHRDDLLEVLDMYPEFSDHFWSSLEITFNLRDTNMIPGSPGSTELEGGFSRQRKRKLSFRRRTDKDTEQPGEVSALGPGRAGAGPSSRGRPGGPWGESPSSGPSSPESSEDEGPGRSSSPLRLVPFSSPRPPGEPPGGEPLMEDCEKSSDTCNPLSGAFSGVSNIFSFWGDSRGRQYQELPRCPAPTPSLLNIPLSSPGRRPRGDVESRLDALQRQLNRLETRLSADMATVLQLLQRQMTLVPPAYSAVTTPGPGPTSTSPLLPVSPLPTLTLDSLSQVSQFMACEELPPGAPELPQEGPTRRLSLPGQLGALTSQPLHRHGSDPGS

Structure (SMILES) | hERG current change (%, negative = inhibition) at 10uM
COc1ccc(NC(=S)N2CCCC(CO)C2)c(OC)c1 (stereo not shown) | -4.67%
COCCCNC(=S)NCCCNc1nc2cc(C)cc(C)c2cc1C#N | -14.2%
O=S(=O)(c1ccccc1)N1CCN(S(=O)(=O)N2CCCCCC2)CC1 | 10.6%
CC(C)CNC(=O)CC(=O)N/N=C/c1ccc(F)cc1 | -9.66%
COc1ccc(-c2nnc(-c3ccccc3)o2)cc1OC | -35.8%
C=CCOc1ccc2ccccc2c1/C=N/O | -16%
CN1C(=O)CSc2ccc(NC(=O)N3CCN(c4ccccn4)CC3)cc21 | -25.3%
COc1cccc(OC)c1C(=O)Nc1ccc2c3c(cccc13)CC2 | 0.914%
CCOc1ccc(OCC)c(NC(=O)CC2Oc3ccc(C)cc3NC2=O)c1 (stereo not shown) | 6.38%
Cc1c(C)n(C)c2ccc(C(=O)NCCCN3CCCC3)cc12 | -23.8%
CCOC(=O)CSc1nc2cc(C(=O)N3CCCC3)ccc2c(=O)n1Cc1ccccc1 | -34%
COCCNC(=O)CCn1c(=O)oc2ccccc21 | 9.49%
CCOC(=O)c1c(NC(=O)C2=C(C)NC(=S)NC2c2ccccc2C(F)(F)F)sc(C)c1C (stereo not shown) | 9.21%
Cc1nn(-c2ccc(C(=O)O)cc2)c(N)c1-c1ccccc1 | 26.7%
Cc1cc2ccccn2c1C(C[N+](=O)[O-])c1c(F)cccc1Cl (stereo not shown) | 15.8%
CSc1ccc(C(=O)N2CCc3ccc(NC(=O)c4ccccn4)cc3C2)cc1 | -4.13%
COc1cc(C(=O)Nc2ccc(Cl)c(C(F)(F)F)c2)cc(OC)c1OC | -3.08%
C/C(=N/NS(=O)(=O)c1cc(C)ccc1C)c1ccc2c(c1)OCO2 | 19.1%
COc1cc2c(=O)n(Cc3ccco3)c(=O)n(CC(=O)c3ccc(Br)cc3)c2cc1OC | -3.02%
FC(F)(F)c1ccccc1CN1CCN(C2CCCCCC2)CC1.O=C(O)C(=O)O | -49.3%
CN(C)CCNS(=O)(=O)c1ccc(N2CCN(c3ccc(F)cc3)CC2)c([N+](=O)[O-])c1 | -62.4%
COc1ccc2nc(C)c(C(N)=O)cc2c1 | 12.5%

Structure (SMILES) | hERG current change (%, negative = inhibition) at 10uM
O=[N+]([O-])C(C1CCS(=O)(=O)C1)C1CCS(=O)(=O)C1 (stereo not shown) | 11.9%
O=C(c1ccc(OC2CCN(CCc3ccccc3)CC2)cc1)N1CCCC(O)C1 (stereo not shown) | -2.05%
Cc1ccc2c(c1)N(C(C)C(=O)NCc1ccc3c(c1)OCO3)C(=O)CO2 (stereo not shown) | 0.0645%
CC(=O)N1CCN(c2ccccc2NC(=O)c2ccc(C#N)cc2F)CC1 | -49.6%
CCOC(=O)CN/C=C(\C#N)c1ccccc1 | 16.2%
CC(Sc1ncc(C#N)c(N)n1)C(=O)Nc1ccccc1 (stereo not shown) | 8.65%
CC(C)COC(=O)c1cccc2c1-c1ccccc1/C2=N\O | 14.5%
CCOc1ccc(CC(=O)Nc2c(C(N)=O)oc3ccc(Br)cc23)cc1OCC | -35.1%
C/C(Cc1ccccc1)=N\NC(=O)CNC(=O)c1ccccc1Br | 6.91%
CCC(C)n1c(SCc2ccccc2)nc2ccsc2c1=O (stereo not shown) | -10.4%
CCc1ccccc1Nc1nc2ccccc2[nH]1 | -0.945%
COc1ccccc1NS(=O)(=O)c1ccc(O)c(C(=O)OCC(=O)Nc2ccccc2F)c1 | -21.4%
Cc1ccc(S(=O)(=O)Nc2ccccc2-c2ccccc2NS(=O)(=O)c2ccc(C)cc2)cc1 | 12.4%
O=P(c1ccccc1)(c1ccccc1)c1nc(-c2ccc(Cl)cc2)oc1N1CCOCC1 | -74.1%
C=CCN1C(=O)C2(C(C#N)=C(N)Oc3n[nH]c(CCC)c32)c2ccccc21 (stereo not shown) | 11.1%
O=C(c1ccccc1N1CCOCC1)N1CCCC(Nc2ccc(F)cc2)C1 (stereo not shown) | 12.2%
COC(=O)Cc1ccc(OC(=O)C2CCN(S(=O)(=O)c3ccc(OC)c(OC)c3)CC2)cc1 | -0.191%
COc1ccc(CNCCNC(=O)c2ccco2)c(OC)c1OC | -7.3%
O=C1[C@H]2[C@@H](c3ccc(F)cc3)N3C(=O)N(c4cccc(Br)c4)C(=O)[C@@]3(Cc3ccc(Cl)cc3)[C@H]2C(=O)N1C1CCCCC1 | 12.6%
CCc1nc(NCCc2ccccn2)c2nnn(Cc3ccccc3F)c2n1 | -5.27%
Cc1ccnc(NC(=O)c2sc3ccccc3c2Cl)c1 | -25.3%
Cc1ccccc1CN1C(=O)c2ccccc2Sc2ccc(C(=O)O)cc21 | -43.8%

Structure (SMILES) | hERG current change (%, negative = inhibition) at 10uM
S=c1[nH]nc(-c2ccco2)n1C1CCCCC1 | 12.7%
CCOC(=O)N1CCN(S(=O)(=O)c2ccc(C)c(C(=O)NC3CCCCC3)c2)CC1 | 1.42%
C=C1CC(C(=O)N/N=C/c2ccccc2)C1 | 11.9%
Cc1ccc(-n2c3c(cc(C(=O)N4CCN(C)CC4)c2=O)C(=O)CC(C)(C)C3)cc1 | -0.042%
COCCNc1nnc(SCC(=O)c2c[nH]c3ccccc23)s1 | 3.79%
COc1ccc(CN(C)C(=O)c2cc(S(=O)(=O)Nc3ccccc3F)ccc2C)c(OC)c1 | -23.1%
COC(=O)c1ccccc1-n1cccc1C(=O)NP(=O)(N1CCOCC1)N1CCOCC1 | 5.36%
O=C(O)CCCCOn1ccnc1 | 18.3%
O=C(NCc1cccnc1)c1nn2cccnc2c1Cl | 15.1%
Cc1ccccc1N=CC=C1OC(C)(C)C(C)(C)O1 | -1.54%
CNS(=O)(=O)c1cccc(C(=O)NCC(c2cccs2)N(C)C)c1 (stereo not shown) | -5.25%
Cc1ccc(S(=O)(=O)/N=C2/NC(=O)/C(=C/c3cc([N+](=O)[O-])ccc3O)S2)cc1 | 14.9%
CCC1=C2CC[C@H]3C(=O)N(c4ccccc4)C(=O)[C@H]3[C@H]2[C@@]2(C)C(=NCC3CC3)OC(=O)N2C1=O | 7.45%
O=C(CNC(=O)c1ccccc1F)NCCOc1cccc(Cl)c1Cl | -13.1%
COc1cc(/C=N/NC(N)=S)ccc1OCC(=O)N1CCOCC1 | 5.47%
CCC(=O)N1CCc2cc(S(=O)(=O)CCC(=O)NCCC3=CCCCC3)ccc21 | -4.4%
O=C(Cn1ccc([N+](=O)[O-])n1)NCc1cccnc1 | 16.9%
O=C(O)c1cccnc1SC1CC(=O)N(c2ccc(OC(F)F)cc2)C1=O (stereo not shown) | -4.25%
CNC(=S)N/N=C(\C)c1cccc(C(F)(F)F)c1 | -7.29%
O=C1NC(=O)C2(Cc3ccccc3N3CCCC32)C(=O)N1c1ccc(Cl)cc1 (stereo not shown) | -30.2%
COc1ccccc1/C=C/CN1CCNC(=O)C1CC(=O)NCCc1cnccn1 (stereo not shown) | 20%
CCOC(=O)c1cnc2nc(NCc3ccc(OCc4ccccc4)cc3)[nH]n2c1=O | 5.06%

Structure (SMILES) | hERG current change (%, negative = inhibition) at 10uM
CCCNC(=O)N(C)c1nncnc1C(=O)NC | 0.627%
Cn1c(=O)n(/N=C/c2ccccc2)c2ccccc21 | 2.26%
CC(C)(C)c1cccc(OCCCSc2ncccn2)c1 | -19.6%
CCc1ccccc1NC(=O)NCc1ccccn1 | 8.47%
CCCOc1ccc(N2C(=O)CC(N(CCc3ccccc3)C(=O)c3ccccc3)C2=O)cc1 (stereo not shown) | 10.8%
COC(=O)c1ccccc1NC(=O)Nc1ccc(Br)cn1.Cl | 27%
N#CC1=C(N)OC2=C(C(=O)CCC2)C12C(=O)N1CCCc3cccc2c31 (stereo not shown) | 13.8%
CCCOc1ccc(/C=N/NC(=O)c2ccc3c(c2)OCO3)c(OCCC)c1 | -17.4%
COc1ccc(COC(=O)CCc2c[nH]c3ccccc23)cc1F | 15.8%
Cc1ccccc1C(=O)N1CCC(C(=O)N2CCN(c3ncccn3)CC2)CC1 | 7.94%
O=S(=O)(c1ccccc1)c1nc(-c2ccccc2Cl)oc1NCCN1CCOCC1 | -12.6%
O=C1CCN(CCc2ccccc2)CCN1CCO | -4.16%
Cc1ccc2c(c1)c(=O)c1c3n2CCN(CC#N)C3CC1 (stereo not shown) | 12%
Cc1ccc(S(=O)(=O)N2CCOCC2)cc1C(=O)N1CCN(S(=O)(=O)c2cccc(F)c2)CC1 | -6.79%
CCCN1C2CCCC1CC(NC(=O)c1cccc([N+](=O)[O-])c1)C2 (stereo not shown) | -36.8%
COc1ccc(C(=O)NCCN2CCOCC2)c(OC)c1 | 25.7%
COc1cccc(C(=O)NCCS(=O)(=O)N2CCCC2)c1 | -11.1%
COc1cc(C2c3[nH]c4ccccc4c3CCN2Cc2cn(C)nc2C)ccc1F (stereo not shown) | 1.02%
C/C(=N\NC(=S)Nc1cccc(C)c1)c1ccccc1 | 4%
Cc1ccc(C)c(NS(=O)(=O)c2cc(C(=O)NCc3ccco3)ccc2C)c1 | -52.3%
COCc1cc(=O)n2[nH]c(SCc3ccccc3)nc2n1 | 0.677%
Cc1cccc(C(=O)NCCc2nnc(SCC(=O)Nc3cccc(C(=O)O)c3)n2C)c1 | 18.5%
